Source: the supplement of paper PMC12067093, “Discovery and optimisation of a covalent ligand for TRIM25 and its application to targeted protein ubiquitination” (Chemical Science, 2025)
Of roughly 21,000 targets only a part is listed; those with the largest changes were picked by preference.

Compound: CC1Cc2ccccc2N1C(=O)C1CCCN(C1)C(=O)CCl (mixture of isomers) [TRIM25 ligand 11 (diastereomer mixture)]
Test: probe-labelled cysteine peptide fold change vs DMSO (competition) (log2 fold change); higher = less target engagement (more negative = stronger competition)
Settings: THP-1, incubation time: 4 h
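Also: competitive chemoproteomic profiling in live THP-1 cells with an iodoacetamide desthiobiotin (IA-DTB) probe, comparing probe-labelled peptide intensities in compound-treated cells against DMSO-treated controls.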

UniProt Q9NQ55, sequence (Q9NQ55 whole entry): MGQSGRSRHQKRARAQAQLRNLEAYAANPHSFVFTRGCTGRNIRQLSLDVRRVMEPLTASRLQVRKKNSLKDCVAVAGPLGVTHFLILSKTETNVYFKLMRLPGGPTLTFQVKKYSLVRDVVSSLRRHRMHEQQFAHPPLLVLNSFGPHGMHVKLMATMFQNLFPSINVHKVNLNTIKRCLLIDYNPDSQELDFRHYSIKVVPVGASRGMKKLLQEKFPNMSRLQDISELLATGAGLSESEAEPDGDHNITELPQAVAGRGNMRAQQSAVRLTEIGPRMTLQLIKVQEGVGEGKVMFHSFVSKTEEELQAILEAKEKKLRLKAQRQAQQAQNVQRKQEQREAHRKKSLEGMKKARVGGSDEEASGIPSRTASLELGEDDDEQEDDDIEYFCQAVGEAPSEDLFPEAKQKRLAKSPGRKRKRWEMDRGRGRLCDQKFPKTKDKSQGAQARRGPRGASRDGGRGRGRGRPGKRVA
UniProt P78527, sequence (P78527 whole entry, looked up): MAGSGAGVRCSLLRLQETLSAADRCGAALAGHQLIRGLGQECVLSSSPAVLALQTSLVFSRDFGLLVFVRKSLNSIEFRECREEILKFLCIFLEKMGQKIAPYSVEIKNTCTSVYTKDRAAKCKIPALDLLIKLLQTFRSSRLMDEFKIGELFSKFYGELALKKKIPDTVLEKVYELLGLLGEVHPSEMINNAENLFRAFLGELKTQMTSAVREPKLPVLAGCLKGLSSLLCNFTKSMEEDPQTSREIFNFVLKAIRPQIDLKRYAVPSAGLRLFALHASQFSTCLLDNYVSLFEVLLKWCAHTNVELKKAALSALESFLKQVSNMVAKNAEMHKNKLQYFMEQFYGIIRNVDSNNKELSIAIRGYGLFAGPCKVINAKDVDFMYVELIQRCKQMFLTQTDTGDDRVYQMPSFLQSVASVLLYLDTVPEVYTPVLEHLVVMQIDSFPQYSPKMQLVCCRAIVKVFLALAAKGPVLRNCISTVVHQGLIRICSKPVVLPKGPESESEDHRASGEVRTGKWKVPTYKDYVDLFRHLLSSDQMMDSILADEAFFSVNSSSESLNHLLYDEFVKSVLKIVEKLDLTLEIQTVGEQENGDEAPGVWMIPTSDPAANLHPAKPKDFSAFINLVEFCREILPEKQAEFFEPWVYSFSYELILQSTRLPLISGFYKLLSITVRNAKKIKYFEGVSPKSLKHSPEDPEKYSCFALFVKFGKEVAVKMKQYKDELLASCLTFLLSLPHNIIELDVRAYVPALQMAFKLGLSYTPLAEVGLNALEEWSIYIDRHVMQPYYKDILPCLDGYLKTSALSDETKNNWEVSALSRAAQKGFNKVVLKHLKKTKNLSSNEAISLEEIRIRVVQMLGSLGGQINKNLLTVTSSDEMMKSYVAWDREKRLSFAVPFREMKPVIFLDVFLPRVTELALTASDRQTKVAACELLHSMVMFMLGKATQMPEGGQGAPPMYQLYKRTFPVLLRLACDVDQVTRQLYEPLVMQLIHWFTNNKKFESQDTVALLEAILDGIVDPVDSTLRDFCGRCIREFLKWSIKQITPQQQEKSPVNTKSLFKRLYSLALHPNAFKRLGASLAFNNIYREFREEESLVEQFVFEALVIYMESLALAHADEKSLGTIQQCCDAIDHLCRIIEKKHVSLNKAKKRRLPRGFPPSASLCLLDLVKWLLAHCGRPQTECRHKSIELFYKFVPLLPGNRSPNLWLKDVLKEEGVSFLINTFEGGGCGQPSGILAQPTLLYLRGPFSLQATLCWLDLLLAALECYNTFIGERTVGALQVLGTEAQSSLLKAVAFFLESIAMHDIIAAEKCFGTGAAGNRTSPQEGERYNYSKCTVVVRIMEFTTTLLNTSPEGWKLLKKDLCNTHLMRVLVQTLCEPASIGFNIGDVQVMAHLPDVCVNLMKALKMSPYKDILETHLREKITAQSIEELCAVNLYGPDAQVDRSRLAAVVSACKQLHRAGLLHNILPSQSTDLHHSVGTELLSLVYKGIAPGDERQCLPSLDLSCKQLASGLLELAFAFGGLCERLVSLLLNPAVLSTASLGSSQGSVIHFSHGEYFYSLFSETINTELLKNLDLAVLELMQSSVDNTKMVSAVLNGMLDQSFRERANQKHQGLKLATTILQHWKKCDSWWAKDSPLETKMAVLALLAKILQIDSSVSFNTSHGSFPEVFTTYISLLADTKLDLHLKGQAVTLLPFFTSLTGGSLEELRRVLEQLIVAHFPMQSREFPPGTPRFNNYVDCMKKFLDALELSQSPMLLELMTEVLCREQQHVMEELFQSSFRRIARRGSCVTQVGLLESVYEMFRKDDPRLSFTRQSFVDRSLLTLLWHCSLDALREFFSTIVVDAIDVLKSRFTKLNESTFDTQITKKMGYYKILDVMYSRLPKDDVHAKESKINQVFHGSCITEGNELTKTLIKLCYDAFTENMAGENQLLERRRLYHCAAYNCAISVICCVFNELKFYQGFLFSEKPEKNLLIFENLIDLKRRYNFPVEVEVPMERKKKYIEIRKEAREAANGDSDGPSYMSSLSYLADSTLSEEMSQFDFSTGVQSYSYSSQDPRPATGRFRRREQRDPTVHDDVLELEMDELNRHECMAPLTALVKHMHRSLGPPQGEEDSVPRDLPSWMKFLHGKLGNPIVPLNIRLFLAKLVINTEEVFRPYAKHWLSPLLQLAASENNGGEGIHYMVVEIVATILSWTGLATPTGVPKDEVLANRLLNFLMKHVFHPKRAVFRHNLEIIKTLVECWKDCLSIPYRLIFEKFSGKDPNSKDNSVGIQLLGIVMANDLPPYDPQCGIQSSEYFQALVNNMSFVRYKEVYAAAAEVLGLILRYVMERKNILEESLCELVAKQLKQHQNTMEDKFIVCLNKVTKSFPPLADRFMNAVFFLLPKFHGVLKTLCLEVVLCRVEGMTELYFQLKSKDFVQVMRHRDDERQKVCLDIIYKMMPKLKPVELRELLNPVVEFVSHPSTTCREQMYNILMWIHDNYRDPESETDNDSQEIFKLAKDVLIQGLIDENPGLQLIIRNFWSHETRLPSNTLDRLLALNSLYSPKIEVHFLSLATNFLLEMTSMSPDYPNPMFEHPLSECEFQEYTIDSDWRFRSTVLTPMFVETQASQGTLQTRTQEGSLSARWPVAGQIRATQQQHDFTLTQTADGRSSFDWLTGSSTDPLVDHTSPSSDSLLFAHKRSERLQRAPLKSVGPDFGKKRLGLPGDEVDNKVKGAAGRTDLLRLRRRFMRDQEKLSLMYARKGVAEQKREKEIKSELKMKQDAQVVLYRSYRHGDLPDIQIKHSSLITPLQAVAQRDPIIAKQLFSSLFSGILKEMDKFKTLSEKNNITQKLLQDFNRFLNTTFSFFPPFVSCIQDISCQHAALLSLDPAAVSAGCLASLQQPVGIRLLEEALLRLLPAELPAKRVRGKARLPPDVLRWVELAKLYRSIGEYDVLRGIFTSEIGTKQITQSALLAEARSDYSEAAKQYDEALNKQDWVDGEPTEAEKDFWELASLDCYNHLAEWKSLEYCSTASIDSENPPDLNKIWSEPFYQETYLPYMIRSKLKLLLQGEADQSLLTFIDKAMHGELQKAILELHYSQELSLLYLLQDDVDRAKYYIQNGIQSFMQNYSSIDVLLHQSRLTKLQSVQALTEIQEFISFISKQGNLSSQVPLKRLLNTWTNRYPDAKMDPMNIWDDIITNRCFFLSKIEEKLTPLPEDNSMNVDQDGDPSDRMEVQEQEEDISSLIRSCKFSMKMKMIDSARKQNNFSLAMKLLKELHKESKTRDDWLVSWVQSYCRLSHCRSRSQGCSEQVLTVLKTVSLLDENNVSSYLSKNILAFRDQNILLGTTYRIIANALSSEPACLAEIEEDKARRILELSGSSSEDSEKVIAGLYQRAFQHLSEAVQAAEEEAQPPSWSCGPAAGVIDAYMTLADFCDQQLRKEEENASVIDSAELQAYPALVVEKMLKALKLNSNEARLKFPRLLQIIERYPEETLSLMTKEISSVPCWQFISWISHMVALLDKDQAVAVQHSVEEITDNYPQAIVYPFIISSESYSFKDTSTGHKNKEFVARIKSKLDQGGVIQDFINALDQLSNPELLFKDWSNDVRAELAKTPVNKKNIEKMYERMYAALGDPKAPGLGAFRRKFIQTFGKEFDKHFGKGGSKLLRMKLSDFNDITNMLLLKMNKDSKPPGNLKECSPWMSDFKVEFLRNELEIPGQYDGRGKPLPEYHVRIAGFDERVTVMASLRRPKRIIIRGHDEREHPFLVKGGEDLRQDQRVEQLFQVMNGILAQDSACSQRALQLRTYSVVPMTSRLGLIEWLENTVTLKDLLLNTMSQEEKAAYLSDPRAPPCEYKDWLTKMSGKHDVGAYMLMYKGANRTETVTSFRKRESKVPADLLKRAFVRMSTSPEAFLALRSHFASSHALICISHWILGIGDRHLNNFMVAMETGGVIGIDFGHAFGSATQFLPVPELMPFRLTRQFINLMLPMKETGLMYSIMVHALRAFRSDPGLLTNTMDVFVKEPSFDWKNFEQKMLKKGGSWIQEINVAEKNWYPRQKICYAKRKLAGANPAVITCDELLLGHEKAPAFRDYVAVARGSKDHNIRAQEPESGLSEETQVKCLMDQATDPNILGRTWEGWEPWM
UniProt Q9UP65, sequence (Q9UP65 whole entry): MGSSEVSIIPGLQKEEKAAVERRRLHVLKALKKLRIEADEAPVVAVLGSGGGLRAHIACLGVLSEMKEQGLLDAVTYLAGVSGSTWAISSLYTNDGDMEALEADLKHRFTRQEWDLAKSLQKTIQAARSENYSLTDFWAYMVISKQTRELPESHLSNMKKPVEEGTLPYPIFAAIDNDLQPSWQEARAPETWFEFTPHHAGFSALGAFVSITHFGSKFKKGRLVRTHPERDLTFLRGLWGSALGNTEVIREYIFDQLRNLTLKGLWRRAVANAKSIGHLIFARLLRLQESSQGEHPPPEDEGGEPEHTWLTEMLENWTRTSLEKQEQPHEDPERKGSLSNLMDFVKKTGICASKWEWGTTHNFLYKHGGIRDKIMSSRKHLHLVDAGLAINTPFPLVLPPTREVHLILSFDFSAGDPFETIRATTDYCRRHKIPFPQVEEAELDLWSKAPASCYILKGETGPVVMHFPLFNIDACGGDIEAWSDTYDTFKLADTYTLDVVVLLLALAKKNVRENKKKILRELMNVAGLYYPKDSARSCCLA

Row | Target | probe-labelled cysteine peptide fold change (10 µM) | probe-labelled cysteine peptide fold change (50 µM)
1 | PGM2_Q96G03_510_ACGKFEISAIR (UniProt Q96G03) | -0.602 | -0.498
2 | PRDX6_P30041_91_DINAYNCEEPTEK (UniProt P30041) | 0.103 | -0.0888
3 | PPP4R1_Q8TF05_566_SDLQDELDINELPNCK (UniProt Q8TF05) | -0.0791 | -0.173
4 | POLD1_P28340_713_LPCLEISQSVTGFGR (UniProt P28340) | 0.00388 | 0.165
5 | PPT1_P50897_152_CPGESSHICDFIRK (UniProt P50897) | -0.116 | -0.113
6 | PREP_P48147_352_SNFLVLCYLHDVK (UniProt P48147) | 0.19 | 0.15
7 | POLD3_Q15054_398_TYLDGEGCIVTEK (UniProt Q15054) | -0.187 | 0.0619
8 | POP1_Q99575_706_LGTLAPFCCPWEQLTQDWESR (UniProt Q99575) | -0.0314 | -0.242
9 | PLOD3_O60568_698_FLRYDCVISSPR (UniProt O60568) | -0.209 | -0.131
10 | PPP6R3_Q5H9R7_216_HSNASQSLCEIVR (UniProt Q5H9R7) | 0.0678 | -0.153
11 | PRRC2C_Q9Y520_620_QESENSCNK (UniProt Q9Y520) | 0.0427 | 0.153
12 | PNP_P00491_31_HRPQVAIICGSGLGGLTDKLTQAQIFDYGEIPNFPR (UniProt P00491) | -0.69 | -0.229
13 | PPIL3_Q9H2H8_25_TCENFLALCASNYYNGCIFHR (UniProt Q9H2H8) | -0.31 | -0.139
14 | PRSS12_P56730_739_LQGPEEQCAR (UniProt P56730) | -0.0442 | 0.0478
15 | POSTN_Q15063_44_GRDQGPNVCALQQILGTK (UniProt Q15063) | 0.664 | 0.513
16 | PHIP_Q8WWQ0_522_CSPDGQHFACTDSHGHLLIFGFGSSSK (UniProt Q8WWQ0) | 0.0707 | 0.0548
17 | PRXL2A_Q9BRX8_88_RPGCFLCR (UniProt Q9BRX8) | -2.16 | -2.01
18 | POLD1_P28340_1058_LWTQCQR (UniProt P28340) | -0.0348 | 0.291
19 | PIP4P1_Q86T03_104_CGVCNEATPIK (UniProt Q86T03) | -0.0166 | 0.0399
20 | PRKDC_P78527_223_LPVLAGCLK (UniProt P78527) | -0.12 | 0.0647

Row | Target | probe-labelled cysteine peptide fold change (10 µM) | probe-labelled cysteine peptide fold change (50 µM)
21 | POP1_Q99575_481_KPDSVSLHCR (UniProt Q99575) | 0.0851 | 0.0924
22 | PPM1F_P49593_359_ALTGSEDYLLLACDGFFDVVPHQEVVGLVQSHLTR (UniProt P49593) | -0.201 | -0.609
23 | PRPF39_Q86UA1_413_ACTIHLPK (UniProt Q86UA1) | 0.0312 | 0.0595
24 | PLA2G4C_Q9UP65_351_KTGICASK (UniProt Q9UP65) | -0.00842 | -0.032
25 | PNKP_Q96T60_353_SGPLCLPESR (UniProt Q96T60) | -0.182 | -0.149
26 | PRKCA_P17252_143+151_QCVINVPSLCGMDHTEKR (UniProt P17252) | -0.157 | -0.459
27 | PRR14L_Q5THK1_1483_DTESCTSPCLLGAPR (UniProt Q5THK1) | -0.0458 | -0.271
28 | PELO_Q9BRX2_175_GNCSQHDR (UniProt Q9BRX2) | 0.379 | 0.165
29 | PPP2R5D_Q14738_17_CTAKPSSSGK (UniProt Q14738) | -0.467 | -0.717
30 | PRRC2B_Q5JSZ5_1121_EFARPEDCPR (UniProt Q5JSZ5) | -0.142 | -0.232
31 | PPP4R2_Q9NY27_22+30_EVCPVLDQFLCHVAK (UniProt Q9NY27) | -0.109 | -0.258
32 | PLEC_Q15149_4254_CITDPQTGLCLLPLK (UniProt Q15149) | 0.107 | 0.575
33 | PNKP_Q96T60_308_DFSCADR (UniProt Q96T60) | -0.0263 | -0.0963
34 | PGK1_P00558_108_ACANPAAGSVILLENLR (UniProt P00558) | 0.0224 | -0.137
35 | PECAM1_P16284_405_SNTVQIVVCEMLSQPR (UniProt P16284) | -0.029 | 0.11
36 | PRKCB_P05771_71_QGFQCQVCCFVVHKR (UniProt P05771) | -0.248 | -0.0818
37 | PLEKHA2_Q9HB19_228_FFALDDFTICYFK (UniProt Q9HB19) | 0.34 | -0.203
38 | PFAS_O15067_108_LNFSTPTSTNIVSVCR (UniProt O15067) | 0.148 | 0.224
39 | PPAN_Q9NQ55_73_DCVAVAGPLGVTHFLILSK (UniProt Q9NQ55) | -0.0887 | 0.217
